Test results reported in PubChem BioAssay AID1645887 (National Center for Advancing Translational Sciences (NCATS), 2021).
Several values for one entry are separate records, joined by “and”; a condition that tells them apart may be missing. Equal values may be shown once. Screen size: about 16,000 compounds; about 40 (0.2%) were called active. About 1% were inconclusive and are not listed. The call rests on the fitted dose curve; in most records, active means well fitted activation curve with a large enough effect; inconclusive means small, poorly fitted or top-dose-only effect, or another doubt; inactive means no such curve, though single readings can be large or run the other way. This is one part of the list.

molecular target: Rap guanine nucleotide exchange factor 4 (Homo sapiens) (UniProt Q8WZA2); experiment: Validation qHTS for agonist of cAMP-regulated guanine nucleotide exchange factor 4 (EPAC2); settings: EPAC2 Rap1B BODIPY-GDP exchange, fluorescence; activation: active compounds read high;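 further: exchange makes BODIPY-GDP fluorescence drop when released from Rap1B; series mostly up to about 150 µM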
Chain of UniProt Q8WZA2 (Q8WZA2 whole entry, looked up): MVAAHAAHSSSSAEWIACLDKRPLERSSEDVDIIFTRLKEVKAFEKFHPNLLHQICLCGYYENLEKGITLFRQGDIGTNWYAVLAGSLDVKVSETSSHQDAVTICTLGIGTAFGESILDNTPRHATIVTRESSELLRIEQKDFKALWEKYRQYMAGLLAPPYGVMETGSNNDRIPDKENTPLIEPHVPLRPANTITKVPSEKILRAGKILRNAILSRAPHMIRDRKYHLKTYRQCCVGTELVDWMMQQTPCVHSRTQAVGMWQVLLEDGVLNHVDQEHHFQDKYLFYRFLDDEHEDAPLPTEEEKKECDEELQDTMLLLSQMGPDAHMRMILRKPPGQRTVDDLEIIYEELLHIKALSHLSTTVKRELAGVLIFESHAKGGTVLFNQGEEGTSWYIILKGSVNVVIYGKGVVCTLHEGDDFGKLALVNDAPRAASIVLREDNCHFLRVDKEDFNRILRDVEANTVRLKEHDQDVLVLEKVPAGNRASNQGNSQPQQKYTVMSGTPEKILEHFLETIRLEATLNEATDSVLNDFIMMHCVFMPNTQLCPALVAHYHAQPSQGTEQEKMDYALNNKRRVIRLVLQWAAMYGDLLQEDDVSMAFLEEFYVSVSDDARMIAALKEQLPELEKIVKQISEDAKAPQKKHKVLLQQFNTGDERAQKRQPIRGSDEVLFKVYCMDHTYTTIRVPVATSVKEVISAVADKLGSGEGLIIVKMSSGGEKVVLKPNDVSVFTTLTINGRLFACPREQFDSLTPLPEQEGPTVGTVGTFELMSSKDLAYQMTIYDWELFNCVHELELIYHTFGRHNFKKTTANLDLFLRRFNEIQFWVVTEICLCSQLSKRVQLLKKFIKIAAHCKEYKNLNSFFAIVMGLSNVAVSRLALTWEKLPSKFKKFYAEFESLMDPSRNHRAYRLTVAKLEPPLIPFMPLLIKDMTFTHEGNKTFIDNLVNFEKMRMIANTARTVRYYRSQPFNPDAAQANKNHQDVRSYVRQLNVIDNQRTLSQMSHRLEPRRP
Method in brief: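 Signal normalized against 6.5 mM cAMP as agonist control. Mix of EPAC2 (100 nM), RAP1B-BODIPY-GDP (250 nM) and GDP (50 uM) was read kinetically at 480/540 nm, every 5 min over 30 min, after 5 min room-temperature incubation with compound.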
On the % scale 0 is the no-effect control and ±100 the full control effect.

activation, inactive:
Clc1ccc2nccnc2c1 -20.9%
COc1ccccc1C(=O)N1CCOc2ccc(C(C)(O)CCn3cccn3)cc2C1 (centres undefined) -1.67%
CC(=O)N1CCN(c2ccc(OCC3CO[C@@](Cn4ccnc4)(c4ccc(Cl)cc4Cl)O3)cc2)CC1 (some centres undefined) -12.7%
Cc1c(C(=O)NN2CCCCC2)nn(-c2ccc(Cl)cc2Cl)c1-c1ccc(Cl)cc1 -22.9%
Cc1cccc(CNc2ncnc3ccc(-c4ccoc4)cc23)c1 -10.8%
Cn1cccc1C(=O)N1CCC2(CCCN(c3ccccc3)C2)CC1 -11.3%
O=C(Nc1ccccc1)N1CC2(CCN(C(=O)c3cccc(F)c3)CC2)C1 1.64%
O=c1c(-c2ccc(F)cc2)nc2cnc(Oc3ccccc3)nc2n1C1CC1 -7.07%
OC1(c2cccnc2)CCN(Cc2ccc3c(c2)CN(Cc2cc(F)ccc2F)CCO3)CC1 -6.02%
NS(=O)(=O)c1ccc(Cl)c(S(N)(=O)=O)c1 10.8%
CCC1COCCS(=O)(=O)N1Cc1ccccc1C (centres undefined) -28.9%
CN(C)Cc1ccccc1-c1cncnc1NCc1cccs1 -18.3%
COc1cc(C)c2ccccc2n1 -24.7%
CC(C)(C)c1ccc(S(=O)(=O)/C=C\C#N)cc1 -23%
COC(=O)c1cc(=O)c(O)c2c(O)c(O)ccc2c1 -17.6%
COC(=O)C1CCCCN1Cc1nc(N2CCCN(C(C)=O)CC2)c2ccccc2n1 (centres undefined) -9.14%
COc1cccc(-c2nc(Nc3ccncc3)c3ccccc3n2)c1 16.2%
COC(=O)/C=C/c1ccc(C(=O)NCC(=O)N[C@@H](CCC(=O)OC)C(=O)N[C@@H](CC(C)C)C(N)=O)cc1 -0.969%
C=CC(C1=CC(=O)C(OC)=CC1=O)c1ccccc1 (centres undefined) 2.24%
COc1cc2c(cc1OC)CC(=O)N(CCCN(C)C[C@H]1Cc3cc(OC)c(OC)cc31)CC2 5.82%
O=C(c1cnccn1)N1CCC2(CCN(Cc3ccccc3)CC2)CC1 0.116%
NCC1OC(n2cnc3c(=O)[nH]c(N)nc32)C(O)C1O (centres undefined) 7.25%
CC[N+](CC)(CC)CCOc1ccc(/C=C\c2ccccc2)cc1 -11.5%
O=c1c(-c2ccccc2)nc2cnc(N3CCOCC3)nc2n1C[C@H]1CCCO1 -3.07%
CCCCCCCCCCCCOCCOCCOCCOCCOCCOCCOCCOCCOCCO -54.4%
COCCCNc1ncnc2sc(C(=O)N3CCOCC3)c(C)c12 -19.6%
CO[C@H]1[C@H](NC(=O)C(C)C)c2ccccc2C12CCN(Cc1c(C)nn(C)c1Cl)CC2 -0.554%
CCn1c(-c2ccccc2F)nc2cc(C(=O)NCC3CCOCC3)cc(NC(C)=O)c21 -1.26%
O=C(Nc1ccccc1)N1CCC2(CCNCC2)CC1 -8.32%
CSc1cc2c(cc1C(F)(F)F)N(C(=O)Nc1cccnc1)CC2 -12.2%
CCCCC 2.77%
c1cncc(CNc2ncncc2-c2ccoc2)c1 -8.07%
C/C(=C\c1ccco1)CN1CCOc2ccc(CN3CCC(Oc4cccnc4)CC3)cc2C1 -11.2%
CC1(C)OC[C@@H]2O[C@@]3(C(=O)O)OC(C)(C)O[C@H]3[C@@H]2O1 10.2%
CC(C)/C(O)=C1/C(=O)OC(c2ccoc2)[C@@]2(C)C(O)C(O)[C@@]34OC5(C)OC67CC(C)(C(O)[C@@]6(O)C(O)[C@@]3(O5)C12)C(CC(=O)O)[C@@]74C (some centres undefined) -11.9%
Cc1ccc2c(/C=C/c3ccc(N(C)C)cc3)ccnc2c1C -15.7%
Cc1noc(C)c1C(=O)N1CCC2(CCCN(C(=O)Nc3cccc(F)c3)C2)CC1 -14.1%
COc1cc2c(Nc3ccc(Br)cc3F)ncnc2cc1OCC1CCN(C)CC1 19.4%
CS(=O)(=O)N1CCC2(CCN(Cc3ccc(C#N)cc3)CC2)CC1 -22.1%
CCCCCCCC/C=C\CCCCCCCC(=O)OC[C@H](CO)OC(C)=O -29.7%
Cc1ccnc2ccc(N)cc12 -20.7%
CCOC(=O)COc1ccc2c(=O)cc(-c3ccccc3)oc2c1 -10.9% and 4.28%
C/C(N[C@@H]1CSCC1O)=C1/C(=O)CC2[C@@H]1C2(C)C (some centres undefined) -5.38%
COc1c(CC(=O)c2cc3c(cc2O)OC(C)(C)C(O)C3)ccc2c1C=CC(C)(C)O2 (centres undefined) -4.6%
O=C(O)c1nc2cc(Cl)c(Cl)cc2[nH]c1=O -12.1%
CCC[N+](C)(C)c1ccc(/C=C/c2ccncc2)cc1 -34.5%
Cn1c(SCC2CCCO2)nnc1C1CCN(Cc2ccc(-c3cccc(Cl)c3)o2)CC1 (centres undefined) -4.89%
CCCC1CC(C(=O)N[C@H](C(C)O)C2OC(SC)[C@@H](O)C(O)C2O)N(C)C1 (some centres undefined) 3.83%
CCC(CO)NCCNC(CC)CO (centres undefined) -6.66%
CCCCCCCC/C=C\CCCCCCCCOC[C@H](COP(=O)([O-])OCC[N+](C)(C)C)OC(C)=O -25.4%
Fc1ccc(CN(C2=NCCN2)c2c(Cl)cccc2Cl)cc1 -18.3%
CC(=O)Nc1ccc(/C=C/c2ccccn2)cc1 -32.8%
O=c1c(CCc2ccccc2)nc2cnc(N3CCNCC3)nc2n1Cc1cccs1 -12%
IC(I)I 5.04%
CN1C(=O)c2ccccc2C1=O -8.55%
CC(=O)[C@H](CC(C)C)NC(=O)[C@@H](CC(C)C)NC(=O)[C@H](CC(C)C)NC(=O)OCc1ccccc1 -10.3%
COc1ccccc1-c1ccc2ncnc(N(C)Cc3ccco3)c2c1 -2.37%
O=S1(=O)CCOCCCN1Cc1ccccc1Br -32.5%
CC[C@@H]1C(=O)[C@H](Cc2ccccc2)[C@H]2CCCC(=O)N3CC[C@@H]1[C@@H]23 -22.4%
